Data published in paper PMC3891622, “The Sphingolipid Receptor S1PR2 Is a Receptor for Nogo-A Repressing Synaptic Plasticity” (PLoS Biology, 2014).

Key:
Conditions in all cases: one partner purified
[1] = target: T1, Nogo-A-ext (rat aa1-979), the entire Δ20-containing extracellular N-terminal domain of Nogo-A (rat, UniProt Q9JK11-1 1-979); test: BLI; Octet Red; S1PR2 membrane preparations (25 µg/ml) immobilised on amine-reactive biosensors, HBSN buffer with 10 mM MgCl2; Nogo-A-ext serially diluted, 15 min, 1,000 rpm, 30°C; control membranes as reference; apparent equilibrium constant from a nonlinear fit
T1 construct: Nogo-A (Rtn4), rat, residues 1-979; source: HEK293T, transiently transfected, purified (Strep-tactin chromatography)
T1 sequence (looked up): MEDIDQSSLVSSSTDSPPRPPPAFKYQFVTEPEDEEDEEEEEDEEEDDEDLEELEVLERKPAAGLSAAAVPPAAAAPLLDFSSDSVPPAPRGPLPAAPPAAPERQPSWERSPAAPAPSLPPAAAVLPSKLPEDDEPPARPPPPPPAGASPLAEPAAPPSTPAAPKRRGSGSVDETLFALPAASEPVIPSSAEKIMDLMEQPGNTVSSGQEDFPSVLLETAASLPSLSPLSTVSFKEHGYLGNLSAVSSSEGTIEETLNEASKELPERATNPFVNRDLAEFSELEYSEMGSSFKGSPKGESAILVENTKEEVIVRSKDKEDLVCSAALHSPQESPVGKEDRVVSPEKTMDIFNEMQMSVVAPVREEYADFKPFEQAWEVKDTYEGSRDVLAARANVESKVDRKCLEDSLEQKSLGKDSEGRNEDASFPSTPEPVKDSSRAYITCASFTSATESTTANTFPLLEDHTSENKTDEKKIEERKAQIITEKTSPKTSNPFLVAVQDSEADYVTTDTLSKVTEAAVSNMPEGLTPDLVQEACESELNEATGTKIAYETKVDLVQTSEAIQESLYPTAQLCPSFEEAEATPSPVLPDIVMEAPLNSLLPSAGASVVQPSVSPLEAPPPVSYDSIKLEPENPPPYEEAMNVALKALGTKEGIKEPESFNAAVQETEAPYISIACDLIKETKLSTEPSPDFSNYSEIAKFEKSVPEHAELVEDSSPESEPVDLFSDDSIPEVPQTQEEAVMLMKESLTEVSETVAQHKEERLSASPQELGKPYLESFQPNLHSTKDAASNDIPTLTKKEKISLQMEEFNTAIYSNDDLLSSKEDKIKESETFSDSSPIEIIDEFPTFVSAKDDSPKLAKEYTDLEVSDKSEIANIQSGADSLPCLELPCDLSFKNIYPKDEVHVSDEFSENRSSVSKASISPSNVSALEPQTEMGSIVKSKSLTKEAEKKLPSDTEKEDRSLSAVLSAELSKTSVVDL

[2] = target: T1, Nogo-A-ext (rat aa1-979), the entire …; test: BLI; as a5, with 1 µM S1P added together with Nogo-A-ext
[3] = target: T1, Nogo-A-ext (rat aa1-979), the entire …; test: BLI; as a5, with methanol (vehicle control) added together with Nogo-A-ext

B1: Recombinant full length S1PR2 in membrane preparations (receptor, UniProt O95136 1-353, looked up)
chain: MGSLYSEYLNPNKVQEHYNYTKETLETQETTSRQVASAFIVILCCAIVVENLLVLIAVARNSKFHSAMYLFLGNLAASDLLAGVAFVANTLLSGSVTLRLTPVQWFAREGSAFITLSASVFSLLAIAIERHVAIAKVKLYGSDKSCRMLLLIGASWLISLVLGGLPILGWNCLGHLEACSTVLPLYAKHYVLCVVTIFSIILLAIVALYVRIYCVVRSSHADMAAPQTLALLKTVTIVLGVFIVCWLPAFSILLLDYACPVHSCPILYKAHYFFAVSTLNSLLNPVIYTWRSRDLRREVLRPLQCWRPGVGVQGRRRGGTPGHHLLPLRSSSSLERGMHMPTSPTFLEGNTVV
notes: Sphingosine 1-phosphate receptor 2, full length, in membranes of overexpressing cells; also called sphingosine 1-phosphate receptor 2; S1PR2-overexpressing membranes; source: bought: Millipore, recombinant S1PR2 membrane preparations
[1]
  Kd: ~142 nM
[2]
  Kd: ~202 nM
[3]
  Kd: ~192 nM
